This is one part of the list. The full chains were built here from the parent and the listed change. Values near 0.05 are background.
B1: TEV protease; numbered along this chain (parent)
chain: MGESLFKGPRDYNPISSSICHLTNESDGHTTSLYGIGFGPFIITNKHLFRRNNGTLVVQSLHGVFKVKDTTTLQQHLVDGRDMIIIRMPKDFPPFPQKLKFREPQREERICLVTTNFQTKSMSSMVSDTSCTFPSGDGIFWKHWIQTKDGQCGSPLVSTRDGFIVGIHSASNFTNTNNYFTSVPKNFMELLTNQEAQQWVSGWRLNADSVLWGGHKVFMVKPEEPFQPVKEATQL

Variants of: B1
Assay: raw area under fraction-flipped curve 0-4 h after induction (AUC4h, not background-subtracted), DNA-recorder readout of cleavage of the substrate (dimensionless); higher = more cleavage of the substrate by the protease variant
Conditions: temperature: 34 °C; time window: 0-4 h after rhamnose induction
Description: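 In vivo DNA recorder in E. coli TOP10(DE3) ΔrhaA at 34 °C. Each TEVp single-site mutant (parent TEVp 0) is paired with a single-site variant of the 7-mer TEVs (canonical ENLYFQ|S). The substrate sits between flexible linkers in a Bxb1-sfGFP-TEVs-SsrA fusion, so cleavage stabilises Bxb1 and speeds flipping of a recombination array, read by NGS. The value is the raw area under the fraction-flipped curve over 0-4 h after rhamnose induction (AUC4h), with ≥20 reads per time point. It is not background-subtracted; inactive controls average about 0.047.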
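Also: Bxb1 expression induced with 0.2% (w/v) L-rhamnose at OD600 near 0.5, cultures sampled hourly, flipped fraction per protease–substrate barcode pair counted by paired-end Illumina sequencing.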

Row | Variant | area with substrate ENAYFQS | area with substrate ENCYFQS | area with substrate ENEYFQS | area with substrate ENFYFQS | area with substrate ENHYFQS | area with substrate ENKYFQS | area with substrate ENMYFQS | area with substrate ENNYFQS | area with substrate ENPYFQS | area with substrate ENQYFQS | area with substrate ENRYFQS | area with substrate ENSYFQS | area with substrate ENTYFQS | area with substrate ENVYFQS | area with substrate ENYYFQS | area with substrate ENDYFQS | area with substrate ENGYFQS | area with substrate ENWYFQS | area with substrate ENIYFQS
1 | P9F | 0.0716 | 0.0676 | 0.0433 | 0.0416 | 0.0666 | 0.0632 | 0.0542 | 0.0583 | 0.07 | 0.0639 | 0.0642 | 0.0555 | 0.0633 | 0.0729 | 0.0882 | – | – | – | –
2 | I15E | 0.0625 | 0.0543 | 0.0528 | 0.0551 | 0.0661 | 0.0519 | 0.0555 | 0.0757 | 0.0577 | 0.0404 | 0.0593 | 0.0569 | 0.0595 | 0.0615 | – | 0.0567 | 0.0659 | 0.0435 | –
3 | I15Q | 0.0686 | 0.0852 | – | 0.0532 | 0.0713 | 0.0622 | 0.0589 | 0.0617 | 0.0716 | 0.0488 | 0.0569 | 0.066 | 0.055 | 0.0687 | 0.0539 | 0.0704 | – | – | 0.112
4 | I15D | 0.0492 | 0.0434 | 0.0442 | 0.0546 | 0.0436 | – | 0.0633 | 0.0488 | 0.0545 | 0.0558 | 0.0474 | 0.0527 | 0.0473 | 0.0551 | 0.0409 | 0.047 | 0.0514 | 0.0975 | 0.0833
5 | C20Q | 0.0535 | 0.059 | 0.0476 | – | 0.0562 | 0.0351 | – | – | – | 0.0423 | 0.0504 | 0.0571 | 0.0211 | 0.0524 | – | 0.0518 | – | – | –
6 | C20N | 0.0443 | 0.0448 | 0.0505 | 0.0463 | 0.0416 | 0.0524 | 0.0727 | 0.0539 | 0.0569 | 0.049 | 0.0144 | 0.0453 | 0.0608 | 0.0427 | 0.0398 | 0.0451 | 0.0496 | – | 0.0646
7 | S26P | 0.0596 | 0.0508 | 0.0467 | 0.0454 | – | 0.0544 | 0.0676 | 0.0349 | – | 0.0378 | – | – | 0.0506 | 0.0456 | 0.0586 | – | 0.0627 | 0.058 | 0.0784
8 | S26L | 0.0557 | 0.0642 | 0.0458 | 0.0554 | 0.0587 | 0.0498 | – | – | 0.0536 | 0.0513 | 0.0693 | 0.0686 | 0.0576 | 0.0687 | 0.057 | 0.0597 | 0.0446 | – | 0.0522
9 | S26W | 0.0509 | 0.069 | 0.0592 | 0.0599 | 0.0592 | – | 0.0742 | 0.068 | 0.0615 | 0.0494 | 0.0614 | 0.0468 | 0.0569 | 0.0715 | – | 0.0637 | 0.0747 | – | 0.0808
10 | S26H | 0.0668 | – | 0.0596 | 0.0647 | 0.0736 | – | 0.0908 | – | – | 0.0541 | 0.0566 | 0.0678 | 0.0668 | 0.0692 | – | 0.0648 | – | 0.0698 | 0.0714
11 | S26N | 0.0557 | 0.0495 | 0.0508 | 0.0579 | 0.0519 | 0.072 | – | 0.045 | 0.0264 | 0.0571 | 0.0598 | 0.067 | 0.0693 | 0.0698 | 0.0514 | 0.0579 | – | 0.0578 | –

— the supplement of paper PMC12217912
